Experimental data from the RNAGym collection of RNA variant scans (doi:10.7554/elife.90254).
Read counts are not given, so values of variants with three or more changes are uncertain.

B1: LINE1-full (parent)
chain: UACGUAGGUGGUUUUCCCCUGAUAGUGCUAAGGGGGCCUGGAAGUUUGGACUGGGCAGAGCUCAACACAGCGUGGCAAAGUGGCUGUGGCUAGACUGCCUCUCUGGAUUCCUCGUCACUCAGCAGGGCAUCUCUGAGAGAAAUGCC

Variants of: B1
Experiment: self-cleavage, relative activity (ratio to wild type); higher = more cleavage; in vitro, sequencing; the parent is a self-cleaving ribozyme

For UAAGUAGGUGGUUUUCCCCUGAUAGUGCUAAGGGGGCCUGGAAGUUUGGACUGGGCAGAGCUCGACACAGCGUGGCAAAGUGGCAGUGGCUAGACUGCCUCUCCGGAUUCCUCGUCACUCAGCAGGGCAUCUCUGAGAGAAAUGCC, which self-cleavage is on record?
The self-cleavage was 0.

With UAAGUAGGUGGUUUUCCCCUGAAAGUGCUAAGGGGGCCUGGAAGUUUGGACUGGGCAGAGCUCAACACAGCGUGGCAAAGUGGCCGUGGCUAGACUGCCUCUCUGGAUUCCUCGUCACUCAGCAGGGCAUCUCUGAGAGAAAUGCC as the variant, how does the self-cleavage read?
Its self-cleavage is 0.47.

For UAGGUAGGUGGUUUUCCCCUGAUAGUGCUAAGGGGGCCUGGAAGUUUGGACUGGGCAGAGCUCAACACAGCGUGGCAAAGUGGCUGUGGCUAGACCGCCUCUCUGGAUUCCUCGUCACUCAGCAGGGCGUCUCUGAGAGAAAUGCC, which self-cleavage is on record?
Its self-cleavage is 0.38.

Which self-cleavage does the source give for UUCGUAGGUGGUUUUCCCCUGAUAGUGCUAAGGGGGCCUGGAAGUUUGGACUGGGCAGAGCUCAACACAGCGUGGCAAAGUGGCUGUGGCUAGACUGCCUCACUGGAUUCCUCGUCACUCAGCAGGGCAUCUCAGAGAGAAAUGCC here?
The self-cleavage was 0.93.

Which self-cleavage does the source give for UAAGUAGGUGGUUUUCCCCCGAUAGUGCUAAGGGGGCCUGGAAGUUUGGACUGGGCAGAGCUCAACACAGCGUGGCAAAGUGGCUGUGGCUUGACUGCCUCUCUGGAUUCCUCGUCACUCAGCAGGGCAUCUCUGAGAGAAACGCC here?
The self-cleavage was 0.73.

For UUCGUAGGAGGUUCUCCCCUGAUAGUGCUAAGAGGGCCUGGAAGUUUGGACUGGGCAGCGCUCAACACAGCGUGGCAGAGUGGCUGUGGCUAGACUGCCUCUCUGGAUUCCUCGUCACUCAGCAGGGCAUCUCUGAGAGAAACGCC, which self-cleavage is on record?
The self-cleavage was 0.32.

Which self-cleavage does the source give for UUCGUAGGUGGUCUUCCCCUGAUAGUGCUAAAGGGGCCUGGAAGUUUGGACUGGGCAGAGCUCAACACAGCGUGGCAAAGUGGCUGUGGCUAGACUGCCUCUCUGGAUUCCUCGUCACUCAGCAGGGCAUCUCUGAGAGAAAUGCC here?
Its self-cleavage is 0.73.

With UAAGUAGGUGGUUUUCCCCUGAUAGAGCUAAGGGGGCCUGGAAGUUUGGACUGGGCAGAGCUCAACACAGCGUGGCAAAGUGGCUGUGGCUAGUCUGCCUCUCUGGAUUCCUCGUCACUCAACAGGGCAUCCCUGAGAGAAAUGCC as the variant, how does the self-cleavage read?
Its self-cleavage is 0.25.

For UUCGUAGGUGGUUUUCCCCUGAUAGCGCUAAGGGGGCCUGGAGGUUUGGACUGGGCAGAGCUCAACACAGCGUGGCAUAGUGGCUGUGGCUAGACUGCCUCUCUGGAUUCCUCGUCACUCAGCAGGGCAUCUCUGUGAGAAAUGCC, which self-cleavage is on record?
Its self-cleavage is 1.28.

With UUCGUAGGCGGUUUUCCCCUGAUAGCGCUAAGGGAGCCUGGAAGUUUGGACUGGGCAGAGCUCAACACUGCGCGGCAGAGUGGCUGUGGCUGGACUGCCUCUCUGGAUUCCUCGUCACUCAGCAGGGCAUCUCUGAGAGAAAUGCC as the variant, how does the self-cleavage read?
Its self-cleavage is 0.

With UAGGUAGGUGGUUUUCCCCUGACAGUGCUAAGGGGGCCUGGAAGUUUGGACUGGGCAGAGCUCAACACAGCGUGGCAAAGAGGCUGUGGCUAGACUGCCUCUCUGGAUUCCUCGUCACUCAGCAGGGCAUCUCUGAGAGAAAAGCC as the variant, how does the self-cleavage read?
The self-cleavage was 1.18.

With UUCGUAGGUGGCUUUCCCCUGAUAGUGCUAAGGGGGCCUGGAAGUUUGGACUGGGCAGAGCUCAACACAGCGUGGCAAAGUGGCCGUGGCUAGACUGCCUCUCUGGAUUCCUCGUCACACAGCAGGGCAUCUCUGAGAGAAAUGCC as the variant, how does the self-cleavage read?
The self-cleavage was 0.36.

For UAUGUAGGUGGUUUUCCCCUGAUAGUGCUAAGGGGGCCUGGGAGUCUGGACUGGGCAGAGCUCAACACAGCGUGGCAAAGUGGCUGUGGCUAGACUGCCUCUCUGGAUUCCUCGUCACUCAGCAGGGCAUCUCUGAGAGAAAUGCC, which self-cleavage is on record?
Its self-cleavage is 0.57.

With UAAGUAGGUGGUUUUCCCCUGAUAGUGCUAAGGGGGCCUGGAGGUUUGGACUGGGCAGGGCUCAACACAGCGUGGCAAAGUGGCUGUGGCUAGACUGCCUCUCUGGAUUCCUCGUCACUCAGCAGGGCAUCUCUGAGAGGAAUGCC as the variant, how does the self-cleavage read?
The self-cleavage was 0.

With UUCGUAGGUGGGUUUCCCUUGAUAGUGCUAAGGGGGCCUGGAAGUUUGGACUGGGCAGAGCUCAACACAGCGUGGCAAAGUGGCUGUGGCUAGACUGCCUCUCUGGACUCCUCGUCACUCAGCAGGGCAUCUCUGAGAGAAAUGCC as the variant, how does the self-cleavage read?
The self-cleavage was 0.48.

With UAAGUAGGUGGUUUUCCCCUGAUAGUGCUAAGGGGGCCUGGAAGUUUGGACUGGGCGGAGCUCAACACAGCGUGGCAAAGUGGCUGUGGCUAGACUGCCUCUCUGGAUUCCUCGUCACUCAGCAGGGCAUCUCAGAGAGAAAUGCC as the variant, how does the self-cleavage read?
Its self-cleavage is 0.16.

Which self-cleavage does the source give for UUCGUAGGUGGUUUUCCCCUGAUAGUGCUAAGGGGGCCUGGAAGUUUGGACUGGGCAGAGCUCAACACAGCGUGGCAAAGUGGCUGUGGCUAGACUGCCUCUCUAGGUUCCUCGUCACUCGGCAGGGCAUCUCUGAGAGAAAUGCC here?
The self-cleavage was 1.12.

Which self-cleavage does the source give for UAUGUAGGUGGUUUUCCCCUGAUAGUGCUAAGGGGGCCUGGGAGUUUGGACUGGGCAGAGCUCAACACAGCGUGGCAAAGUGGCUGUGGCUAGCCUGCCCCUCUGGAUUCCUCGUCACUCAGCAGGGCAUCUCUGAGAGAAAUGCC here?
Its self-cleavage is 1.23.

With UUCGUAGGUGGUUUUCCCCUGAUAGUGCUAAGGGGGCCAGGAAGUUUGGACUGGGCAGAGCUCAACACAGCGUGGCAAAGUGGCUGUGGCAAGACUGCCUCUCUGGGUUCCUCGUCACUCAGCAGGGCAUCUCUGAGAGAAAUGCC as the variant, how does the self-cleavage read?
The self-cleavage was 0.88.

Which self-cleavage does the source give for UAAGUAGGUGGUUUUCCCCUGAUAGUGCUAAGGGGGCCUGGAAGGUUGGACUGGGUAGAGCUCAACACAGCGUGGCAAAGUGGCUGUGGCUAGACUGCCUCUCUGGAUUCCUCGUCACACAGCAGGGCAUCUCUGAGAGAAAUGCC here?
The self-cleavage was 0.21.

Which self-cleavage does the source give for UUCGUAGGUGGUUUUCCCCAGAUAGUGCUAAGGGGGCCUGGAAGUUUGGACUGGGCAGAGCUCAACACAGCGUGGCAAAGUGGCUGUGGCUAGACUGCCUCUCUGGAUUCCUCGUCACUCAGCAGGGCAUCUCAGAGAGAAAUGCC here?
The self-cleavage was 0.48.

With UAGGUAGGUGGUUUUCCCCUGAUAGUGCUAAGGGGGCCUGGAAGUUUGGACUGGGCAGAGCUCAACACAGCGUGGCUAAGUGGCUGUGGCUAGUCUGCCUCUCUGGAUUCCUCGUCACUCAGCAGGGCAUCUCUGAGAGAAAUGCC as the variant, how does the self-cleavage read?
The self-cleavage was 0.59.

With UAAGUAGGUGGUCUUCCCCUGAUAGUGCUAAGGGGGCCUGGAAGUUUGGACUGGGCAGAGCUCAACACAGCGUGGCAAAGUGGCCGUGGCUAGACUGCCUCUCUGGAUUCCUCGUCACUCAGCAGGGCAUCUCUGAGAGAAAUGCC as the variant, how does the self-cleavage read?
The self-cleavage was 0.22.

Which self-cleavage does the source give for UUCGUAGGCGGUUUUCCCUUGAUAGUGCUAAGGGGGCCUGGAAGUUUGGACUGGGCAGAGCUCAACACAGCGUGGCAAAGUGGCCGUGGCUAGACUGCCUCUCUGGGUUCCUCGUCACUCAGCAGGGCAUCUCUGAGAGAAAUGCC here?
The self-cleavage was 0.19.

Which self-cleavage does the source give for UUCGUAGGUGGUUCUCCCCUGAUAGUGCUAAGGGGGCCUGGAAGUUCGGACUGGGCAGAGCUCAACACAGCGUGGCAGAGUGGCUGUGGCUAGACUGCCUCUCUGGAUUCCUCGUCACUCAGCAGGGCAUCUCUGAGAGAAAUGCC here?
Its self-cleavage is 1.01.

Which self-cleavage does the source give for UAUGUAGGUGGUUUUCCCCUGGUAGUGCUAAGGGGGCCUGGAAGUUUGGACUGGGCGGAGCUCAACACGGCGUGGCAAAGUAGCUGUGGCUAGACUGCCUCUCUGGAUUCCUCGUCACUCAGCAGGGCAUCUCUGAGAGAAAUGCC here?
The self-cleavage was 0.13.

Which self-cleavage does the source give for UAAGUAGGUGGUUUUCCCCUGAUAGUGCUAAGGGGGCCUGGAAGUUUGGACUGGGCAGAGCUCAACGCAGCGUGGCGAAGUGGCUGUGGCUAGACUGCCUCUCUGGAUUCCUCGUCACUCAGCAGGGCAUCUCUGGGAGAAAUGCC here?
Its self-cleavage is 1.84.

For UAAGUAGGUGGAUUUCCCCUGAUAGUGCUAAGGGGGCCUGGAUGUUUGGACUGGGCAGAGCUCAACACAGCGUGGCAAAGUGGCUGUGGCUAGACUGCCUCUCUGGAUUCCUCGUCACUCAGCAGGGCAUCUCUGAGAGAAAUGCC, which self-cleavage is on record?
Its self-cleavage is 0.51.

With UUCGUAGGUGGGUUUCCCCUGAUAGUGCUAAGGGGGCCUGGAAGUUUGGACUGGGCAGGGCUCAACACAGCGUGGCAAAGUGGCUGUGGCUAGACUGCCUCUCUGGAUUCCUCGUCACUCAGCAGGGCAUCUCUGAGCGAAAUGCC as the variant, how does the self-cleavage read?
The self-cleavage was 0.2.

With UAUGUAGGUGGUUUUCCCCUGAUGGUGCUAAGGGGGCCUGGAAGUUUGGACUGGGUAGAGCUCAACACAGCGUGGCAAAGUGGCUGUGGCUAGACUGCCUCUCUGGAUUCCUCGUCACUCAGCAGGGCAUCUCUGAGAGAAAUGCC as the variant, how does the self-cleavage read?
Its self-cleavage is 0.38.

For UUCGUAGGUGGUUUUCCCCUGAUAGUGCUAAGGGGGCCUGGAAGUUUGGACUGGGCAGAGCUCAACACAGCGUGGCAAAGUGGCUGUGGCUAGACUGCCACCCUGGAUUCCUCGUCACUCAGCAGGGCAUCUCUGAGAGAAAUGCC, which self-cleavage is on record?
The self-cleavage was 1.31.

For UUCGUAGGUGGUUUUCCCCUGAUAGUGCUAAGGGGGCCUGGAAGUUUGGACUGGGCAGAGCUCAACACAGCGUGGCAAAGUGGCGGUGGCUAGGCUGCCUCUCUGGAUUCCUCGUCACUCAGCAGGGCAUCUCUGAGAGAAAUGCC, which self-cleavage is on record?
The self-cleavage was 0.25.

For UUCGUAGGUGGUUUUCCCCUGAUAGUGCCAAGGGGGCCUGGAAGUUUGGACUGGGCAGAGCUCAACACAGCGUGGCAAAGUGGCUAUGGCUAGACUGCCUCUCUGGGUUCCUCGUCACUCAGCAGGGCAUCUCCGAGAGAAAUGCC, which self-cleavage is on record?
The self-cleavage was 0.17.

Which self-cleavage does the source give for UAAGUAGGUGGUCUUCCCCUGAUAGUGCUAAGGGGGCCUGGAAGUUUGGACUGGGCAGAGCUCAAUACAGCGUGGCAAAGUGGCCGUGGCUAGACUGCCUCUCUGGAUUCCUCGUCACUCAGCAGGGCAUCUCUGAGAGAAAUGCC here?
Its self-cleavage is 0.04.

For UAAGUAGGUGGUUUUCCCCUGAUAGUGCUAAGGGGGCCUGGAAGAUUGGACUGGGCAGAGCUCAACACAGCGUGGUAAAGUGGCUGUGGCUAGACUGCCUCUCUGGAUUCCUCGUCACUCAGCAGGGCAUCUCUGAGAGAAAUGCC, which self-cleavage is on record?
Its self-cleavage is 1.23.

For UAGGUAGGUGGUUUUCCCCUGAUAGUGCUAAGGGGGCCUGGAAGUUCGGACUGGGCAGAGCUCAACACAGCGUGGCAAAGAGGCUGUGGCUAGACUGCCUCUCUGGAUUCCUCGUCACUCAGCAGGGCAUCUCUGAGAGAAAUGCC, which self-cleavage is on record?
The self-cleavage was 1.12.

Which self-cleavage does the source give for UAUGUAGGUGGUUUUCCCCUGAUAGUGCUAAGGGGGCCUGGAGGUUUGGACUGGGCAGAGCUCAACACAGCGUGGCAAAGUGGCUGUGGCUAGACUUCCUCUCUGGAUUCCUCGUCACUCAGCAGGGCAUCUCUGAGGGAAAUGCC here?
The self-cleavage was 0.14.

For UAAGUAGAUGGUUCUCCCCUGAUAGUGCUAAGGGGGCCUGGAAGUUUGGACUGGGCAGAGCUCAACACAGCGUGGCAAAGUGGCUGUGGCUAGACUGCCUCUCUGGAUUCCUCGUCACUCAGCAGGGCAUCUCUGAGAGAAAUGCC, which self-cleavage is on record?
Its self-cleavage is 0.83.

Which self-cleavage does the source give for UUCGUAGGUGGUUUUCCCCUGAUAGUGCUAAGGGGGCCUGGAAGUUUGGACUGGGCAGAGCUCAACACAGCGUGGCAAAGUGGCAGUGGCAAGACUGCCUCUCUGGAUUCCUCGUCACUCAGCAGGGCAUCUCCGAGAGAAAUGCC here?
Its self-cleavage is 0.13.
